The whole screen tested about 310,000 compounds, of which about 14,000 (4.5%) showed an effect of 50% or more. Effects have a minus sign here. The list shows a part of the results.
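Also: peak tail current of the secondary pulse compared with the same well before compound.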

Chain of human ether-à-go-go-related gene (hERG) potassium channel (Q12809 whole entry, looked up): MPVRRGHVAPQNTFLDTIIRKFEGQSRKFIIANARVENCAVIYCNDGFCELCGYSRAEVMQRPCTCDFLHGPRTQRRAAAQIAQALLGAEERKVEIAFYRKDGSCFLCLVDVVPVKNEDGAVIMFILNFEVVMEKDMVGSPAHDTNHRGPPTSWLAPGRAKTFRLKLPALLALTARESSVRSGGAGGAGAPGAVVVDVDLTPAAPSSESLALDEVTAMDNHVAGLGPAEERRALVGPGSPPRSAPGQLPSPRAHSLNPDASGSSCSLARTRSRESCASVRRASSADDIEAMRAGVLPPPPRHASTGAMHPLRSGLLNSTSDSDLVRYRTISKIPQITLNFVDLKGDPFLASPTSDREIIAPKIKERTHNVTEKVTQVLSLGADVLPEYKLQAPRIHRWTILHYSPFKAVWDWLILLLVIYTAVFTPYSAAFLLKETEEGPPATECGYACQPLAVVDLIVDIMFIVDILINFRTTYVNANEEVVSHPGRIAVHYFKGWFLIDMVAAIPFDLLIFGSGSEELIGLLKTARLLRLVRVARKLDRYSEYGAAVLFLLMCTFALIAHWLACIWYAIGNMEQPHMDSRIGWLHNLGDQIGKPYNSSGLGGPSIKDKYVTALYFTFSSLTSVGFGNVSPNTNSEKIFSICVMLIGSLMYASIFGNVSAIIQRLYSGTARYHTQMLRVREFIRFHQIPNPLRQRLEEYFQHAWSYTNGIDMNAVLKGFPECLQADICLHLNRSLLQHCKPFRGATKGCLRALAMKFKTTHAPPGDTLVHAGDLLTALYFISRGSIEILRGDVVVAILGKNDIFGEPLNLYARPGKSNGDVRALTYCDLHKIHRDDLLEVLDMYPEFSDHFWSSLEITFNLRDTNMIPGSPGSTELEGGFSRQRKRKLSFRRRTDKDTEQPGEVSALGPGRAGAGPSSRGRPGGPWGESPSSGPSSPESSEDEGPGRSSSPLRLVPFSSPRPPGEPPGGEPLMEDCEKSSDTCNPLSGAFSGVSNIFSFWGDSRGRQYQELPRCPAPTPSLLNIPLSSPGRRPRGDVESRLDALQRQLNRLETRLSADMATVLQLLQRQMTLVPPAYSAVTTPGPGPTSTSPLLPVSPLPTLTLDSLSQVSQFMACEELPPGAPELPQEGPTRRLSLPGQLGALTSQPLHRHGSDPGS

The experiment has as its target human ether-à-go-go-related gene (hERG) potassium channel (human, UniProt Q12809). Briefly: primary screen, population patch clamp on CHO cells stably expressing hERG.
In the case of `O=C(/C=C/c1ccco1)NCCCN1CCOCC1`, the “hERG current change (%, negative = inhibition) at 10uM” value was determined as 12.9%. Take `COC(=O)Nc1sccc1C(=O)Nc1sccc1C(=O)OC`: the “hERG current change (%, negative = inhibition) at 10uM” value is listed as 1.71%. To `COc1ccccc1N1C(=S)N=C(Nc2c(C)cccc2C)C12CCCC2` belongs 10.5%; to `CC1CCCC(C)N1C(=O)CSc1nnc(C2CCCCC2)o1` (stereo not shown), -8.48%; to `O=C(/C=C/c1ccc(S(=O)(=O)N2CCOCC2)cc1)NC(=S)Nc1ccc(N2CCOCC2)cc1`, 18.5%. For `Cc1cccc(N2CCN(C(=O)Cc3ccc(Br)cc3)CC2)c1C`, the “hERG current change (%, negative = inhibition) at 10uM” value was -11.3%.

Take `Cc1ccc(/C=C/c2ccc(=O)n(Cc3ccc(F)cc3)n2)cc1`: the “hERG current change (%, negative = inhibition) at 10uM” value is 2.5%. `COc1ccc(/C=C2/Sc3ccc(C(=O)N4CCc5ccccc5C4)cc3NC2=O)cc1`: the “hERG current change (%, negative = inhibition) at 10uM” value turned out to be 3.04%.

For the molecule `CC(=O)Nc1nc(-c2ccccc2)nc(C)c1C(C)=O`, the “hERG current change (%, negative = inhibition) at 10uM” value is recorded as -5.89%. As to `c1ccc2sc(C3CCN(Cc4nnnn4Cc4ccc5c(c4)OCO5)CC3)nc2c1`, the “hERG current change (%, negative = inhibition) at 10uM” value is recorded as -8.73%. To `COc1ccccc1CNC(=O)CCn1c(=O)[nH]c2ccsc2c1=O` belongs 0.279%.

On to `Cc1cccc(N2CCN(C(=O)CSc3nc4ccccc4nc3N3CC(C)OC(C)C3)CC2)c1C` (stereo not shown), for which the “hERG current change (%, negative = inhibition) at 10uM” value is listed as 10.5%.

As to `O=C(NCC1COc2ccccc2O1)C1CCN(S(=O)(=O)c2cccc3nsnc23)CC1` (stereo not shown), the “hERG current change (%, negative = inhibition) at 10uM” value was 4.15%. To `O=C(NC1CCN(S(=O)(=O)c2ccc(F)cc2)CC1)c1ccco1` belongs 16.8%; to `CN(C)c1ccc(C2N(C)C(=O)c3ccccc3N2C)cc1` (stereo not shown), 7.9%; to `O=C(N/C(=C\c1cccs1)C(=O)N1CCOCC1)c1ccco1`, 0.17%. As for `Cc1cc(C)cc(NC(=O)C2(c3cccs3)CCOCC2)c1`, the “hERG current change (%, negative = inhibition) at 10uM” value is listed as -8.59%.

In the case of `Cc1nc(CNS(=O)(=O)c2ccc3c(c2)OCCO3)cs1`, the “hERG current change (%, negative = inhibition) at 10uM” value is given as 3.18%. Consider `C/C(=N\NC(=O)C(=O)Nc1c(C)n(C)n(-c2ccccc2)c1=O)c1ccncc1`, for which the “hERG current change (%, negative = inhibition) at 10uM” value was -5.94%. As to `CC(=O)ON1C(C)(C)CC(OC(=O)c2ccccc2)CC1(C)C`, the “hERG current change (%, negative = inhibition) at 10uM” value is on record as 7.94%. With `C/C=C/C(=O)Nc1ccccc1Br`, the “hERG current change (%, negative = inhibition) at 10uM” value stood at 3.23%. In the case of `COc1cc(OC)c(C(=O)OCC(=O)Nc2nnc(-c3ccccc3)o2)cc1OC`, the “hERG current change (%, negative = inhibition) at 10uM” value is reported as 6.07%. As for `O=C(Nc1cccc(S(=O)(=O)N2CCCCC2)c1)C1CCCN1S(=O)(=O)c1ccccc1F` (stereo not shown), the “hERG current change (%, negative = inhibition) at 10uM” value was -7.07%. On to `COC(=O)c1ccc(NC(=S)NNC(=O)CC(C)C)cc1`, for which the “hERG current change (%, negative = inhibition) at 10uM” value was determined as 14.2%.

Turning to `O=C(NC1CCN(C(=S)NCc2ccco2)CC1)c1cccc(F)c1`, the “hERG current change (%, negative = inhibition) at 10uM” value was -47.1%. To `Cc1cc(-c2ccccc2)c2nncn2n1` belongs 7.69%. Then `COc1ccc(Nc2c(-c3ccco3)nc3cccc(C)n23)cc1`, with 8.67%; and `Cc1ccc(N/C=C(/C#N)c2ccsc2)cc1C`, with 0.958%; and `CN(CC1COc2ccccc2O1)C(=O)c1cccc(S(=O)(=O)N2CCCC2)c1` (stereo not shown), with -19.7%. For `COc1ccc(NC(=O)CCCn2c(=O)c3sccc3n(Cc3ccc(C)cc3)c2=O)cc1`, the “hERG current change (%, negative = inhibition) at 10uM” value was -5.72%. As for `COC(=O)c1ccccc1OCC(=O)N1CCN(c2ccc(OC)cc2)CC1`, the “hERG current change (%, negative = inhibition) at 10uM” value is on record as -11.3%. Regarding `O=C(NCc1ccccc1)c1ccc(=O)[nH]n1`, the “hERG current change (%, negative = inhibition) at 10uM” value is listed as -0.706%. As for `O=C(Nc1cc(S(=O)(=O)N2CCOCC2)ccc1O)c1ccc2c(c1)S(=O)(=O)c1ccccc1C2=O`, the “hERG current change (%, negative = inhibition) at 10uM” value came to 31.2%. On to `CN(C(=O)c1ccccc1C(=O)OCC(=O)Nc1ccc(S(N)(=O)=O)cc1)c1ccccc1`, for which the “hERG current change (%, negative = inhibition) at 10uM” value was -5.32%.

Consider `CN(C)S(=O)(=O)n1ccnc1`, for which the “hERG current change (%, negative = inhibition) at 10uM” value is recorded as 6.16%. Then `N#Cc1ccccc1S(=O)(=O)N1CCN(S(=O)(=O)c2ccc(Br)c(C(=O)O)c2)CC1`, with 5.73%; and `CCN(CC(=O)Nc1ccccc1C(F)(F)F)C(=O)CCc1c(C)[nH]c(=O)c(C#N)c1C`, with 24.1%; and `Oc1ccc(-c2[nH]ncc2-c2ccc(Br)cc2)c(O)c1`, with 7.08%. As for `CCOc1ccc(CCNC(=O)CN2C(=O)CCSc3ccccc32)cc1`, the “hERG current change (%, negative = inhibition) at 10uM” value is recorded as -7.76%. For `COc1cccc(C2C3(C#N)C(N)=NC(OC)(OC)C23C#N)c1` (stereo not shown), the “hERG current change (%, negative = inhibition) at 10uM” value came to 9.01%. Regarding `Cc1ccc(S(=O)(=O)Nc2cccc(C(=O)NCc3cccnc3)c2)cc1F`, the “hERG current change (%, negative = inhibition) at 10uM” value is 9.69%. For `Cc1ccc(CNC(=O)COC(=O)CCCOc2ccc(Cl)cc2Cl)cc1`, the “hERG current change (%, negative = inhibition) at 10uM” value was found to be 30.6%. For `O=C(NNC(=O)c1cc(-c2ccccc2)nn1-c1ccccc1)c1ccccc1`, the “hERG current change (%, negative = inhibition) at 10uM” value is on record as -43.6%. To `O=C(O)c1ccc(NS(=O)(=O)c2ccc3nnn(O)c3c2)cc1` belongs -0.0153%; to `CC(=NCC1CCNCC1)C1=C(O)CC(C)(C)CC1=O`, 17.1%. On to `O=C(Nc1ccccc1N1CCCCC1)C1CCN(S(=O)(=O)c2ccccc2C(F)(F)F)CC1`, for which the “hERG current change (%, negative = inhibition) at 10uM” value is -4.19%. Consider `CN(C(=O)CCc1ccccc1)c1nnc(-c2ccncc2)s1`, for which the “hERG current change (%, negative = inhibition) at 10uM” value is -2.67%. In the case of `Cc1ccc(/C=C/S(=O)(=O)NCC(=O)OCC(=O)Nc2c(F)cccc2F)cc1`, the “hERG current change (%, negative = inhibition) at 10uM” value came out at 10.9%.

With `O=C(CN1C(=O)CCS(=O)(=O)c2ccccc21)NCc1ccc2c(c1)OCO2`, the “hERG current change (%, negative = inhibition) at 10uM” value is listed as -2.31%. As for `Cl.O=C(Cc1ccccc1)OCCN1CCOCC1`, the “hERG current change (%, negative = inhibition) at 10uM” value stood at 20.4%. In the case of `CCN1CCN(c2cc3c(cc2F)c(=O)c(C(=O)O)cn3C2CC2)CC1`, the “hERG current change (%, negative = inhibition) at 10uM” value turned out to be 7.09%. Regarding `CCCSCCCNC(=O)c1ccccc1NC(=O)C1=CSCCO1`, the “hERG current change (%, negative = inhibition) at 10uM” value is on record as -22%. Then `COc1cccc(CNCCc2cccc(F)c2)c1OC.O=C(O)C(=O)O`, with -5.22%; and `Cc1ccc(S(=O)(=O)NCc2ccc(C(=O)N(C)CCC#N)cc2)cc1`, with -3.27%; and `Cc1cccc(OCCNc2cc(N3CCOCC3)ccc2[N+](=O)[O-])c1`, with -12.8%. Turning to `COc1ccc(CN2CCC(CNC(=O)NC3CCCCC3)CC2)cc1`, the “hERG current change (%, negative = inhibition) at 10uM” value is -67.7%.

Regarding `Nc1c(NC=O)c(=O)n(Cc2ccccc2)c(=O)n1Cc1ccccc1`, the “hERG current change (%, negative = inhibition) at 10uM” value is reported as 12.6%.

Take `CCCCCSc1nc(C)c(CC(=O)O)c(=O)[nH]1`: the “hERG current change (%, negative = inhibition) at 10uM” value came to 9.98%. Then `CCC(C)NC(=O)c1ccccc1NC(=O)CN1C(=O)c2ccccc2S1(=O)=O` (stereo not shown), with -16.9%; and `COc1ccc(N2CCN(C(=O)c3c(-c4ccccc4)noc3C)CC2)cc1`, with -12.2%.

Consider `Cc1ccc(-c2nn(-c3ccc(F)cc3)cc2C(=O)N2CCN(C3CCS(=O)(=O)C3)CC2)cc1` (stereo not shown), for which the “hERG current change (%, negative = inhibition) at 10uM” value is on record as -61.6%. `CCn1c(=O)c2ccccc2n(Cc2ccc([N+](=O)[O-])cc2)c1=O`: the “hERG current change (%, negative = inhibition) at 10uM” value is given as -77%. `N#Cc1cc(-c2ccccc2)nnc1Sc1ccc(F)cc1`: the “hERG current change (%, negative = inhibition) at 10uM” value came to 28.9%. `O=C(CNC(=O)c1cccc(N2C(=O)c3ccccc3C2=O)c1)Nc1ccc(F)c(F)c1`: the “hERG current change (%, negative = inhibition) at 10uM” value was determined as 4.85%. Take `COc1ccc(COCC(O)CN2CCCCC2)cc1OC.Cl` (stereo not shown): the “hERG current change (%, negative = inhibition) at 10uM” value turned out to be 16.6%. Then `O=C1C(=Cc2cccn2-c2ccccc2)C(=O)c2ccccc21`, with 12.1%; and `CCc1cccc(NC(=O)CCCN2C(=O)C(c3ccccc3)Oc3cccnc32)c1` (stereo not shown), with -2.79%. In the case of `COC(=O)c1ccc(COC(=O)c2ccc(-n3cnnn3)cc2)o1`, the “hERG current change (%, negative = inhibition) at 10uM” value was -32.3%. With `Fc1cccc(NC(=S)N2CCCCC2)c1`, the “hERG current change (%, negative = inhibition) at 10uM” value came out at 6.54%.

Regarding `O=C(Nc1ccc(/C=C/c2nc3ccccc3o2)cc1)c1cccc(C(F)(F)F)c1`, the “hERG current change (%, negative = inhibition) at 10uM” value is reported as 0.151%. On to `CCCCn1c(O)c(/C(C)=N/NC(=O)Nc2ccccc2)c(=O)[nH]c1=O`, for which the “hERG current change (%, negative = inhibition) at 10uM” value is listed as 7.7%.

As for `CC(=O)c1sc(NC(=O)c2ccc(F)cc2)nc1-c1ccccc1`, the “hERG current change (%, negative = inhibition) at 10uM” value is 2.04%. Take `O=C(CN1CCOc2ccccc21)NCc1ccc(F)cc1`: the “hERG current change (%, negative = inhibition) at 10uM” value is reported as -11%. `CC(=O)Oc1cc2oc(=O)c3c(c2cc1Cl)CCC3`: the “hERG current change (%, negative = inhibition) at 10uM” value is recorded as 11.4%. `O=C(c1sc2ccccc2c1Cl)N1CCC2(CC1)OCCO2`: the “hERG current change (%, negative = inhibition) at 10uM” value is reported as -12.4%.

As to `Oc1ccc(Nc2nc(-c3ccccc3)nc3ccccc23)cc1`, the “hERG current change (%, negative = inhibition) at 10uM” value turned out to be 0.935%. On to `O=C(N/C(=C\c1cccc([N+](=O)[O-])c1)C(=O)N1CCOCC1)c1cccc(Br)c1`, for which the “hERG current change (%, negative = inhibition) at 10uM” value is -4.26%.

As for `CCOC(=O)CSc1n[nH]c(NC(=O)NC(C)C)n1`, the “hERG current change (%, negative = inhibition) at 10uM” value stood at 10.6%. Take `O=C(NC12CC3CC(CC(C3)C1)C2)N1CCN(S(=O)(=O)c2ccc(Cl)cc2)CC1`: the “hERG current change (%, negative = inhibition) at 10uM” value is -19.6%. Turning to `CCOc1ccc(/C=C2\SC(=S)N(CCC(=O)O)C2=O)cc1`, the “hERG current change (%, negative = inhibition) at 10uM” value is given as 3.03%. On to `CN(C)S(=O)(=O)c1ccc(Cl)c(NC(=O)COC(=O)C2CCCO2)c1` (stereo not shown), for which the “hERG current change (%, negative = inhibition) at 10uM” value was determined as 5.01%. To `COc1cc(/C=N\NC(=O)c2ccccc2F)ccc1Oc1ccc([N+](=O)[O-])cn1` belongs -36.6%; to `Cc1c(C(=O)N2CCN(S(=O)(=O)c3ccc(F)cc3)CC2)oc2ccccc12`, -12%. As to `CN1CCN(c2ccccc2NC(=O)c2ccc(Br)o2)CC1`, the “hERG current change (%, negative = inhibition) at 10uM” value is recorded as -67.9%. As for `O=C(/C=C/c1ccc(F)cc1)NCCc1ccc2c(c1)OCCO2`, the “hERG current change (%, negative = inhibition) at 10uM” value is listed as -17%.

For the molecule `Br.COc1ccc(/C=N/N(C)C2=NCCN2)c(OC)c1OC`, the “hERG current change (%, negative = inhibition) at 10uM” value is reported as 5.63%. Consider `CCC(=O)Nc1cccc(NC(=O)CSc2nnc(C3CC3)n2C)c1`, for which the “hERG current change (%, negative = inhibition) at 10uM” value is -1.38%. As for `Cc1nnc(SCc2c(Cl)cccc2Cl)s1`, the “hERG current change (%, negative = inhibition) at 10uM” value is on record as -4.22%.

Source of the values: publication PMC4336329 (PLoS ONE, 2015).
